Experimental data as given in ChEMBL document CHEMBL1201862, “PubChem BioAssay data set” (2004).
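Test compounds were applied to cells in 96-well plates for 48 hours at 5 doses. GI50 = concentration required for 50% inhibition of growth.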 Active and inactive are the calls of the source. No stated cut-off is given here; in the data, active = GI50 up to about 1.1 µM and inactive = higher.

Each compound was assayed on NCI-H322M (assay: NCI anticancer screen, dose series, 48 h).

Row | Compound | GI50
1 | COC(=O)[C@@]12CC[C@]1(C(=O)OC)C1C(C)=CC(=O)O[C@@]12C (stereo partly specified) | inactive: > 100 µM
2 | C=CCN(N=O)C(=O)N(CCCCC(NC(C)=O)C(=O)NCc1ccccc1)Cc1ccccc1 (stereo unspecified) | inactive: 28.2 µM
3 | O=C(N/N=C\c1cccs1)c1ccncc1 | inactive: > 100 µM
4 | NNC(=O)CC(=O)Nc1ccccc1Cl | inactive: > 100 µM
5 | C/C=C1\CN(C(=O)OC(C)(C)C)C1C(=O)OC(C)(C)C (stereo unspecified) | inactive: > 100 µM
6 | Fc1ccc(C(OCCN2CC3CC2CN3CCCc2ccccc2)c2ccc(F)cc2)cc1 (stereo unspecified) | inactive: 12.9 µM
7 | Cc1c2ccccc2cc2ccc3oc([N+](=O)[O-])cc3c12 | inactive: > 100 µM
8 | C=C1C(=O)O[C@H]2C[C@@H]1C(=O)CC(C)CCCC(C)=CCC[C@@]2(C)O (stereo partly specified) | inactive: > 25 µM
9 | Cc1nc2cc3nc4ccccc4c(O)c3cc2s1 | inactive: > 100 µM
10 | O=C1CC(c2ccc(Cl)cc2)Oc2ccccc21 (stereo unspecified) | inactive: 68.9 µM
11 | CCC(=O)C(C(C)/C=C/CCSc1ccccc1)C(O)CCCCCC(=O)OC (stereo unspecified) | inactive: > 100 µM
12 | CN(C)CC1CCC/C1=N\O (stereo unspecified) | inactive: > 100 µM
13 | Cc1ccc(NC(=O)C(=O)Cc2cc[n+]([O-])cc2)cc1 | inactive: > 100 µM
14 | COc1cc2c(cc1OC)C1(COc3cc(O)c(O)c(O)c3C1=O)C2 (stereo unspecified) | inactive: > 50 µM
15 | O=C(CSc1nnc(-c2ccccn2)s1)N/N=C/c1ccccc1 | inactive: > 100 µM
16 | CC(=O)/C(=C/n1ccc(=O)[nH]c1=S)C(=O)Nc1ccccc1C | inactive: > 100 µM
17 | CC(C)(C)N/N=C(\C(=O)Nc1ccc([N+](=O)[O-])cc1[N+](=O)[O-])c1nc2ccc([N+](=O)[O-])cc2nc1O | inactive: > 100 µM
18 | Cn1cnc([N+](=O)[O-])c1Sc1nc(N)nc2c1ncn2C1OC(CO)C(O)C1O (stereo unspecified) | inactive: 12.6 µM
19 | CCOC(=O)CN(c1ccccc1)c1nc(=[N+](C)C)ss1 | inactive: 44.9 µM
20 | CN(C)/C=N/C1CCC(C(C)(C)C)CC1 (stereo unspecified) | inactive: 30 µM
21 | CN(C)NC1=NS(=O)(=O)c2cc3c(cc2S1)N(N(C)C)C(=O)c1cc2c(cc1N(N(C)C)C3=O)SC(NN(C)C)=NS2(=O)=O | inactive: > 10 µM
22 | Cc1ccc(NC(=O)C(=O)Cc2nc3ccccc3o2)c(C)c1 | inactive: > 100 µM
23 | NC(=S)N/N=C(\C(=O)Nc1ccc(Cl)c(Cl)c1)C1=NN(c2ccccc2)C(c2cccc([N+](=O)[O-])c2)CC1=O (stereo unspecified) | inactive: > 100 µM

Row | Compound | GI50
24 | CC1=C(c2cc(C(=O)Nc3cccc(C(F)(F)F)c3)nc(NC#N)n2)Sc2ccccc2N1 | inactive: > 100 µM
25 | COc1cc2c(cc1OCCCN1C(=O)c3cccc4cccc(c34)C1=O)N=C[C@@H]1CCCN1C2=O | inactive: > 100 µM
26 | CCOC(=O)c1cc(Br)c(-c2cc(C)no2)[nH]1 | inactive: 61.1 µM
27 | Oc1nc2c(c(-c3ccc(Br)cc3)n1)COC/C2=C\c1ccc(Br)cc1 | inactive: 24.1 µM
28 | CC(C)C(C(=O)O)N(CC1(O)OCC(O)C(O)C1O)N=O (stereo unspecified) | inactive: > 100 µM
29 | O=C1CSC(c2ccccc2O)N1c1ccc2c(c1)Oc1c(Cl)c3c(c(Cl)c1=N2)Oc1cc(N2C(=O)CSC2c2ccccc2O)ccc1N=3 (stereo unspecified) | inactive: 67.1 µM
30 | CCN(CC)CCn1c2c3ccccc3ccc2c2oc(=O)c3ccccc3c21 | inactive: > 100 µM
31 | COC(=O)C1C2C=CC(C2)C1(C(=O)OC)[S+]([O-])CC12CCC(CC1O)C2(C)C (stereo unspecified) | inactive: > 100 µM
32 | C=CCSC[C@H](NC(=O)COc1ccccc1)C(=O)NC(C(=O)OCc1ccc([N+](=O)[O-])cc1)=C(C)C | inactive: > 100 µM
33 | COc1cc([C@@H]2c3cc4c(cc3[C@@H](Nc3ccccc3C(=O)c3ccccc3)[C@H]3COC(=O)[C@H]23)OCO4)cc(OC)c1OC | inactive: 1.97 µM
34 | C=C(Br)C(C)(Cl)CCC(Br)C(C)(C)Cl (stereo unspecified) | inactive: > 100 µM
35 | C/C(=C\CNc1ncnc2c1ncn2CCC#N)CO | inactive: > 100 µM
36 | COc1ccc(/C=C2\N/C(=N\N=C/C(O)C(O)C(O)C(O)CO)NC2=O)cc1 (stereo unspecified) | inactive: > 100 µM
37 | NNc1ccccc1Cl | inactive: > 100 µM
38 | COC1C(O)C(C)OC(O[C@@H]2C[C@H]3CC[C@@H]4[C@H](CC[C@]5(C)[C@@H](C6=CC(=O)OC6)CC[C@]45O)[C@@]3(C)[C@H](O)C2)C1O (stereo partly specified) | active: 0.0646 µM
39 | COC(O)C(=O)c1c2c(cc3c1CC1(Cc4cc5c(cc4C1)CCC5)C3)CCC2 (stereo unspecified) | inactive: 14.8 µM
40 | CCOC(=O)N1CCC2(CC1)C[C@](C)(C(C)=O)C(C)O2 (stereo partly specified) | inactive: > 100 µM
41 | CC(=O)O[C@H]1CCC2[C@@H]3CCC4Nc5c(cnn5-c5ccccc5)C[C@]4(C)C3CC[C@@]21C (stereo partly specified) | inactive: 22.8 µM
42 | CC1(C)SC2C(NC(=O)Cc3ccccc3)C(=O)N2C1C(=O)O (stereo unspecified) | inactive: > 100 µM
43 | Oc1cc(-c2ccco2)nc2cc3c(cc12)OCO3 | inactive: > 100 µM
44 | CC1(C)Oc2ccc3ccc(=O)oc3c2C(O)C1O (stereo unspecified) | inactive: 80.9 µM
45 | O=C1c2ccccc2CC12CCC1(CC2)OCCO1 | inactive: > 100 µM
46 | O=C1OC2(c3ccccc3Oc3ccccc32)c2ccccc21 | inactive: > 100 µM

Row | Compound | GI50
47 | NN/C(=N\c1ccc(Cl)cc1)NS(=O)(=O)c1ccc(S(=O)(=O)c2ccccc2)s1 | inactive: 21 µM
48 | O=C1C(c2ccc([N+](=O)[O-])cc2)=C(Cl)C(=O)c2c(O)cccc21 | inactive: 30.3 µM
49 | NNC(=O)C1CCC(=O)N1S(=O)(=O)c1ccccc1 (stereo unspecified) | inactive: > 100 µM
50 | O=C(COc1ccc(Cl)cc1)N1CCN(C(=O)COc2ccc(Cl)cc2)c2ccccc21 | inactive: > 100 µM
51 | CCN(CC)CCCNC(=O)c1cc2cc(NC(=O)c3cc4cc([N+](=O)[O-])ccc4[nH]3)ccc2[nH]1 | inactive: > 100 µM
52 | O=C(O)COc1ccc(C(=O)/C(SS/C(C(=O)c2ccc(OCC(=O)O)c(Cl)c2Cl)=C2\C=C(c3ccc(Cl)cc3)SS2)=C2/C=C(c3ccc(Cl)cc3)SS2)c(Cl)c1Cl | inactive: 92.3 µM
53 | CC(=O)OCCCCN1C(=O)CSc2ccccc21 | inactive: > 100 µM
54 | CC(CSC(=N)N)C(N)=O (stereo unspecified) | inactive: > 100 µM
55 | COC(=O)CN1SC2(SC13C(C)(C)C(=O)C3(C)C)C(C)(C)C(=O)C2(C)C | inactive: > 100 µM
56 | Cn1ccnc1CCc1c(Cl)cccc1Cl | inactive: > 100 µM
57 | COc1cc2c(cc1C[C@H]1[C@@H]3C[C@H]4c5c(c6ccccc6n5C)C[C@@H]([C@@H]3CO[C@]1(C)OC(C)=O)N4C)c1c(n2C)C2C[C@H]3C(C(C)=O)=COC[C@H]3[C@H](C1)N2C | inactive: 3.35 µM
58 | C=C(C)CC(C)(c1cc2ccccc2n1C)N1CCOCC1 (stereo unspecified) | inactive: > 100 µM
59 | COC(=O)/C(=C\c1cn(C(C)=O)c2ccccc12)P(=O)(OC)OC | inactive: 18 µM
60 | O=c1c2ccc(Cl)cc2oc2c(CNc3ccc(S(=O)(=O)Nc4nccs4)cc3)cccc12 | inactive: > 100 µM
61 | CC(=O)c1cccc(Nc2nc3ccccc3c3[nH]c4ccccc4c23)c1 | inactive: 4.79 µM
62 | O=C1C(NCCN2CCOCC2)=C(Cl)C(=O)c2ncccc21 | inactive: 1.13 µM
63 | O=[N+]([O-])c1ccc(-c2csc3nc(-c4ccccc4)nn23)cc1 | inactive: > 100 µM
64 | NCCCCCCNCc1cccc2ccccc12 | inactive: > 100 µM
65 | COc1cccc(C2c3cc4c(cc3OC(N3CCCCC3)C2C)OCO4)c1O (stereo unspecified) | inactive: 5.15 µM
66 | O=C(O)c1c(-c2ccccc2)c(=O)[nH]c2ccccc12 | inactive: > 100 µM
67 | COc1cc(NS(C)(=O)=O)ccc1Nc1c2ccccc2nc2ccccc12 [AMSACRINE] | inactive: 3.78 µM
68 | COc1ccc2cc3nc(O)cc(O)c3cc2c1OC | inactive: > 100 µM
69 | Cc1ccc(NC(=O)C2C3CCC(O3)C2C(=O)O)cc1 (stereo unspecified) | inactive: > 100 µM

Row | Compound | GI50
70 | CC(C)(C)OC[C@H](O)CC#N | inactive: > 100 µM
71 | O=C(c1cc(Cl)ccc1Cl)N1CCN(c2ccc(Cl)c(Cl)c2)CC1 | inactive: 52.7 µM
72 | [O-][S+]1c2ccccc2N=C(c2ccc3ccccc3c2)CC1c1ccccc1F (stereo unspecified) | inactive: > 100 µM
73 | COc1cc(-c2nc(N)c(C#N)c3c2CCS(=O)(=O)c2ccc(C)cc2-3)cc(OC)c1OC | inactive: 61 µM
74 | Cc1c(N=NN(C)C)cc[n+]([O-])c1C | inactive: > 100 µM
75 | CCOC(=O)C1(C(=O)OCC)C[C@]23OCCC(=O)[C@H]2[C@H]2C(=O)OC(C)(C)O[C@]23C1 | inactive: > 100 µM
76 | CCOC(=O)C(CCc1ncnc2c1ncn2Cc1ccccc1)(CCc1ncnc2c1ncn2Cc1ccccc1)C(=O)OCC | inactive: 74.5 µM
77 | COc1cccc2c1C(=O)c1c(O)c3c(c(O)c1C2=O)C[C@@](O)(C(C)=O)C[C@@H]3OC1CC(O)C(O)C(C)O1 (stereo partly specified) | inactive: 4.51 µM
78 | CCCCCCC1CCC2CCCC(C)N12 (stereo unspecified) | inactive: > 100 µM
79 | Cc1ccc2c(c1)C(c1cccc3ccccc13)OC2=O (stereo unspecified) | inactive: 47.5 µM
80 | Cc1c(S(=O)(=O)O)ccc(/N=N/c2c(O)c(C(=O)O)cc3ccccc23)c1Cl | inactive: > 100 µM
81 | CC(C)(C)[Si](C)(C)OCC#C[C@@]1(O)CCCCC1CC(Sc1ccccc1)Sc1ccccc1 (stereo partly specified) | inactive: 17.6 µM
82 | Clc1cc2ncn(C3CCCO3)c2cc1Cl (stereo unspecified) | inactive: > 100 µM
83 | CCOC(=O)[C@@H]1C[C@@H]1c1ccc(O)c(O)c1 | inactive: > 100 µM
84 | COc1ccc(-c2cc(O)c3cc(OC)c(OC)cc3n2)cc1OC | inactive: > 100 µM
85 | CC(C)(C)c1ccc2c(c1)CNCCNCc1cc(C(C)(C)C)ccc1OCC1(CO2)COc2ccc(C(C)(C)C)cc2CNCCNCc2cc(C(C)(C)C)ccc2OC1 | inactive: 1.75 µM
86 | CC(C)C1=C(Cc2ccccc2)C(=O)O/C1=C\c1cc(Cl)c(O)c(Cl)c1 | inactive: 18 µM
87 | CCCCn1cnnc1NS(=O)(=O)c1cc(C)c(Cl)cc1SCC(=O)O | inactive: > 10 µM
88 | COc1ccc2nc3cc(Cl)ccc3c(Nc3ccccc3-c3ccccc3Nc3c4ccc(Cl)cc4nc4ccc(OC)cc34)c2c1 | inactive: 38.9 µM
89 | Cc1c(-c2ccccn2)ccc2ccccc12 | inactive: 90.4 µM
90 | O=C1/C(=C2/C(=O)N(c3ccccc3)c3ccccc32)Nc2ccccc21 | inactive: 45 µM
91 | COC(=O)C1=CC2CC1C(S(=O)(=O)c1ccccc1)C2S(=O)(=O)c1ccccc1 (stereo unspecified) | inactive: 55.5 µM
